# Measured values published in paper PMC9554868.
# Sequences of proteins named here, by UniProt entry; tags and fusion partners are left off. A change or cut given only in a name is not applied to a line headed by its entry. A line that says so, or that is headed by a name, gives the form on record, which may keep a tag or linker. Residues count along the entry.
# UniProt Q96GF1: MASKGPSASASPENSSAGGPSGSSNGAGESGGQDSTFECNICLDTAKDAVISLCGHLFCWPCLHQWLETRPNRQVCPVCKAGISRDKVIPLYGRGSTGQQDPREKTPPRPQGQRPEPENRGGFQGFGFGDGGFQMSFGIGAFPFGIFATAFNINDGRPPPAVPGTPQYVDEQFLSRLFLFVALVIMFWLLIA
# RNF185 deletion mutant ∆171–192: residues 1-170 of Q96GF1
# RNF185 deletion mutant ∆133–192: residues 1-132 of Q96GF1
# RNF185 deletion mutant ∆81–132 (Q96GF1, form named): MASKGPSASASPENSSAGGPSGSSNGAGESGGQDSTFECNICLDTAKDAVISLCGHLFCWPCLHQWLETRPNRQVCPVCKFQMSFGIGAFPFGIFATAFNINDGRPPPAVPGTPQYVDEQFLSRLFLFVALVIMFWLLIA
# RNF185 deletion mutant ∆2–18 (Q96GF1, form named): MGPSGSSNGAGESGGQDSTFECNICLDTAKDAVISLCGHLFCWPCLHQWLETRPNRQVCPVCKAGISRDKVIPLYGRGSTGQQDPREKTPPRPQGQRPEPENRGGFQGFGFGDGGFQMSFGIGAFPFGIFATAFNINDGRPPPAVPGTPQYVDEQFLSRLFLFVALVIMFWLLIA
# RNF185 deletion mutant ∆133–155 (Q96GF1, form named): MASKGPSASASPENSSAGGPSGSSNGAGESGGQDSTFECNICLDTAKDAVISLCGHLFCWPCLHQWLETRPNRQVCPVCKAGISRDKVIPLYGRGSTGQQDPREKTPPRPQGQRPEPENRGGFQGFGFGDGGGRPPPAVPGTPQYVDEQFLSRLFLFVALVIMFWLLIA
# RNF185 deletion mutant ∆19–38 (Q96GF1, form named): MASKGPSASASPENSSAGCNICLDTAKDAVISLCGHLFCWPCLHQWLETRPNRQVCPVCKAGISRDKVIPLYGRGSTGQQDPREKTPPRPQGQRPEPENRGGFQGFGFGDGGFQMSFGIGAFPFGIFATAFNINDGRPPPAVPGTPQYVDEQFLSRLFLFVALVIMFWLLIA
# UniProt Q05320, residues 33-676: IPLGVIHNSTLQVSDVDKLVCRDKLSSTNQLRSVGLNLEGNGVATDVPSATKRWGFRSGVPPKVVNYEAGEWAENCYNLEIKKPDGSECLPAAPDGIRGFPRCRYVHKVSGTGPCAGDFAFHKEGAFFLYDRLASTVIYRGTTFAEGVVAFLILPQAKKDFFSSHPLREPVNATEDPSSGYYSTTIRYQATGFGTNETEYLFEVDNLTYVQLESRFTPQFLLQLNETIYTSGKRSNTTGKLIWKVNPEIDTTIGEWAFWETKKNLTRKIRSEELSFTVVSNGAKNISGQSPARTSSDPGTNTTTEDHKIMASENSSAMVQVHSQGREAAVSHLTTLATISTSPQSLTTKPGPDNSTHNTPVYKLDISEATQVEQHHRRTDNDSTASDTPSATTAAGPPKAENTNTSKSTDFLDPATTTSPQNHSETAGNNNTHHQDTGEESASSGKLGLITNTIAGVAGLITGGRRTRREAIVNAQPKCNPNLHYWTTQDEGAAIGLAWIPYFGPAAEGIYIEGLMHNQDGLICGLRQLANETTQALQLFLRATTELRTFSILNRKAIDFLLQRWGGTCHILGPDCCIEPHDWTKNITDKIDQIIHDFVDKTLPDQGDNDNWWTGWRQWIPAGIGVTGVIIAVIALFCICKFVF
# Results are given in words; binding and its absence hold for the method and conditions named. Binding seen in cells or lysates may run through a third protein. Some entries that bind do so weakly or less than the wild type.
# What was measured:
# Test in all cases: co-IP
# [1] = target: RNF185 deletion mutant ∆133–192 (UniProt Q96GF1)
# [2] = target: RNF185 deletion mutant ∆81–132 (UniProt Q96GF1)
# [3] = target: RNF185 deletion mutant ∆2–18 (UniProt Q96GF1)
# [4] = target: RNF185 deletion mutant ∆133–155 (UniProt Q96GF1)
# [5] = target: RNF185 deletion mutant ∆19–38 (UniProt Q96GF1)
# [6] = target: RNF185 deletion mutant ∆171–192 (UniProt Q96GF1)
substance,measurement,setting,value
"Zaire ebolavirus (EBOV) glycoprotein GP1,2 (from UniProt Q05320)",binding,[1],no binding
same,binding,[2],binds
same,binding,[3],binds
same,binding,[4],binds
same,binding,[5],binds
same,binding,[6],no binding
